# Laboratory results published in PubChem BioAssay AID588855 (National Center for Advancing Translational Sciences (NCATS), 2011).
# The campaign covered roughly 410,000 compounds. About 5,000 (1.2%) were called active. Inconclusive results, whose numbers are uncertain, are shown with a selection of clear calls. Calls come from the whole dose curve; as a rule, active = well fitted inhibition curve with a large enough effect; inconclusive = small, poorly fitted or top-dose-only effect; inactive = no such curve, though single readings can be large or run the other way. A potency beside an inconclusive call is a rough fit, not a confirmed value.
# Assay: qHTS for Inhibitors of TGF-b; note: nearly all actives have a fitted effect of over 65% in size
# Settings: HepG2 CAGA-GFP TGF-b/SMAD3 reporter, GFP fluorescence, 18 h, TGF-beta stimulated, 500 pg/mL final; series mostly up to 46.1 µM; activity, negative = inhibition: at the top concentration
# Method in brief: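 HEPG2 CAGA-GFP reporter cells (1000/well, DMEM with 1% FBS) received compounds, then recombinant TGF-beta at 500 pg/mL final for 18 hours at 37 degrees C. Per-cell GFP summed per well was normalised to unstimulated and stimulated DMSO controls before curve fitting.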
# % is set by controls: 0 for no effect and ±100 for the full control effect; potency is the fitted concentration of half-maximal effect; tags give direction and shape of the fitted curve.
Compound,Potency,"activity, negative = inhibition"
Cn1c(-c2ccsc2)c(-c2cccs2)c2cc(Br)ccc21,"inconclusive: 15.8 µM [inhibitor, single point]",–
COc1ccc(-c2c[n+]3c(n2-c2ccccc2)CCCCC3)cc1,"inconclusive: 20 µM [inhibitor, single point]",–
C=CC[C@H](CC(=O)NCCO)C(=O)N[C@H](COC(=O)[C@@H](CC=C)CC(=O)OC(C)(C)C)Cc1c[nH]c2ccccc12,–,inactive: -0.369%
O=C(COc1ccc(Cl)cc1)NCCSCc1cccc(Cl)c1,"inconclusive: 5.62 µM [inhibitor, single point]",–
COc1ccc(C2/C=C\CN(Cc3ccco3)CC(=O)N2Cc2ccc(F)cc2)cc1 (stereo not drawn),"inconclusive: 35.5 µM [inhibitor, partial curve, poor fit]",–
O=C(NC1CCCCC1)c1ccc2c(c1)N(Cc1ccccc1Cl)C(=O)c1ccccc1S2,"inconclusive: 0.447 µM [inhibitor, partial curve, poor fit]",–
CCOc1ccc(-n2ccnc(SCC(=O)Nc3ccc(OC)cc3OC)c2=O)cc1,"inconclusive: 15.8 µM [inhibitor, single point]",–
C/C(=N\NC(=S)NCCc1ccccc1)c1cccc(Br)c1,–,inactive: -29.7%
O=C(NCc1ccccn1)c1ccc(OC2CCN(Cc3ccc(Cl)s3)CC2)cc1,"inconclusive: 10 µM [inhibitor, partial curve]",–
COc1ccc(C)cc1S(=O)(=O)NC1CC1,"inconclusive: 35.5 µM [inhibitor, single point]",–
CC1CC(N(C(=O)c2ccc(Cl)cc2)c2ccccc2)c2ccccc2N1C(=O)c1ccco1 (stereo not drawn),"inconclusive: 35.5 µM [inhibitor, partial curve, poor fit]",–
CN(C)C(=S)N=c1ssc(=S)n1Cc1ccccc1,active: 2.24 µM,–
CCOc1ccccc1NC(=O)C1CCCN1S(=O)(=O)c1ccc2nc(-c3ccccc3)[nH]c2c1 (stereo not drawn),active: 11.2 µM,–
CCCc1ccc(OC(=O)c2cccs2)cc1,–,inactive: 6.04%
O=C(CSc1nnc(-c2ccccc2O)n1Cc1ccccc1)NNC(=O)c1ccccc1O,"inconclusive: 6.31 µM [inhibitor, single point]",–
O=C(NCc1ccco1)c1ccc(Cn2c(SCc3ccccc3F)nc3cccnc32)cc1,active: 12.6 µM,–
CC(C)Nc1nc(NC(C)C)nc(N(C#N)CCOc2ccc(Cl)cc2Cl)n1,"inconclusive: 35.5 µM [inhibitor, single point]",–
COc1ccccc1N1CC(C(=O)Nc2nnc(SC)s2)CC1=O (stereo not drawn),"inconclusive: 11.2 µM [inhibitor, single point]",–
CN(C(=O)CCN1C(=O)C2C3C=CC(C3)C2C1=O)c1ccccc1 (stereo not drawn),–,inactive: 1%
CCOc1cc(C)c(C(C)C)cc1S(=O)(=O)n1cnc(C)c1,–,inactive: -27.2%
COc1ccc(OC)c(-c2csc(N(C)C(=O)Cc3ccccc3)n2)c1,"inconclusive: 0.251 µM [inhibitor, full curve, poor fit]",–
COc1ccccc1CNC(=O)[C@@H]1CCCN1C(=O)[C@@H]1Cc2ccccc2CN1C(=O)OC(C)(C)C,"inconclusive: 20 µM [inhibitor, single point]",–

Compound,Potency,"activity, negative = inhibition"
Cc1cc(C)cc(C(=O)NC(CC(N)=O)c2ccc(N3CCC(Cc4ccccc4)CC3)c([N+](=O)[O-])c2)c1 (stereo not drawn),"inconclusive: 25.1 µM [inhibitor, single point]",–
O=S1(=O)c2cccc3cccc(c23)N1Cc1nnc(-c2ccccc2Br)o1,–,inactive: -18.3%
O=C(OCc1cn(Cc2ccccc2)nn1)c1ccccc1,–,inactive: 0.12%
COC(=O)c1ccc(NC(=O)CSc2nc(C)cc(=O)[nH]2)cc1,"inconclusive: 15.8 µM [inhibitor, single point]",–
COc1ccccc1/C=C/CN1CCN(c2ccccc2)CC1,"inconclusive: 35.5 µM [inhibitor, single point]",–
CC(C)Nc1nc(NC(C)C)nc(N(C)C#N)n1,"inconclusive: 6.31 µM [inhibitor, single point]",–
CCOC(=O)N1CCC(N2CCN(S(=O)(=O)c3ccc4ccccc4c3)CC2)CC1,"inconclusive: 10 µM [inhibitor, partial curve]",–
CCOc1ccccc1CNC(=O)Cn1nc(N2CCN(c3ccccc3)CC2)ccc1=O,–,inactive: -19.1%
COc1ccc(C(=O)NCc2ccc3c(c2)CCN3C(=O)c2ccc(F)cc2)cc1,"inconclusive: 35.5 µM [inhibitor, single point]",–
OC(c1ccc(Cl)c(F)c1)c1ncc(-c2ccc(Cl)cc2)[nH]1 (stereo not drawn),"inconclusive: 25.1 µM [inhibitor, single point]",–
Cc1onc(-c2ccccc2Cl)c1C(=O)Nc1sc2c(c1C(N)=O)CCC(C)C2 (stereo not drawn),"inconclusive: 35.5 µM [inhibitor, single point]",–
COc1ccc(-c2ccc(OC)c(C3C4C=CCCC4(C)C(=O)N3Cc3ccccc3)c2)cc1OC (stereo not drawn),"inconclusive: 22.4 µM [inhibitor, single point]",–
COc1ccccc1OCC(=O)N1CCN(C(=O)COc2ccccc2OC)CC1,–,inactive: 6.9%
COc1ccc(CN(C)CC(O)COc2ccc(-c3ccccc3)cc2)cc1OC (stereo not drawn),"inconclusive: 35.5 µM [inhibitor, single point]",–
COc1ccc(CN2C(=O)/C(=C/c3ccncc3)SC2=S)cc1,"inconclusive: 11.2 µM [inhibitor, partial curve, poor fit]",–
O=C(COc1ccc(F)cc1)OCc1cc(=O)n2nc(-c3cccs3)sc2n1,–,inactive: -26.2%
CC(=O)Nc1ccc(NC(=O)COC(=O)c2ccc([N+](=O)[O-])o2)cc1,–,inactive: -14.3%
C[C@H](NC(=O)c1ncn(C)c1C(=O)N[C@@H](C)c1ccccc1)c1ccccc1,–,inactive: 0.351%
O=C(Nc1ccc(C(=O)OC[C@@H]2CCCN3CCCC[C@H]23)cc1)c1cccc(Br)c1,"inconclusive: 20 µM [inhibitor, single point]",–
COc1cccc(CNS(=O)(=O)c2c(C(=O)N3CCC(C)CC3)c(C)n(C)c2C)c1,–,inactive: -0.915%
CCOc1ccc(-n2c(O)c(/C=N/NC(=O)C3COc4ccccc4O3)c3ccccc3c2=O)cc1 (stereo not drawn),"inconclusive: 22.4 µM [inhibitor, single point]",–
